Reference: the supplement of paper PMC4967469
By IC50 is meant the dose at which the fit gives 50% viability; fits outside the tested doses are given as limits. The AUC spans the tested range (256-fold, ending at the top dose) of the same fit; values near 1 show little effect. For part of these data: The top dose, if marked as inferred, comes from the curve model; the source does not state it.

Tests used:
Experiment in all cases: Viability of human cancer cell lines after 72 h of drug (GDSC screen)
[1] = compound: Nc1ccccc1NC(=O)c1ccc(CNC(=O)OCc2cccnc2)cc1 [MS-275]; settings: top dose 5 µM; top dose inferred
Method: (§1)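 Human cancer cell lines in 384-well plates, medium with 10% serum, drug for 72 h over a 256-fold dose range (nine 2-fold or five 4-fold steps up to the top dose). Adherent lines were fixed and stained with the nucleic acid dye Syto60, suspension lines read with resazurin; signal relative to control wells, capped at 0 and 100%. One two-parameter sigmoid per drug and line, fitted in a mixed model over all curves with the slope shared within a line.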

[2] = compound: O=C(NC(COc1ccc2[nH]c(=O)[nH]c2c1)c1ccccc1)c1cccn(Cc2ccc(F)c(F)c2)c1=O [KIN001-244]; settings: top dose 20 µM; top dose inferred
Method: as §1

[3] = compound: CCNC(=O)C[C@@H]1N=C(c2ccc(Cl)cc2)c2cc(OC)ccc2-n2c(C)nnc21 [I-BET-762]; settings: top dose 20 µM; top dose inferred
Method: as §1

[4] = compound: CCN1CCN(Cc2ccc(NC(=O)c3ccc(C)c(/C=C/c4cnc5[nH]ccc5c4OC)c3)cc2C(F)(F)F)CC1 [HG-6-64-1]; settings: top dose 5.12 µM; top dose inferred
Method: as §1

[5] = compound: CCc1cncnc1N1CCN(Cc2nc3ccc(C(F)(F)F)cc3[nH]2)CC1 [PF-4708671]; settings: top dose 10 µM; top dose inferred
Method: as §1

[6] = compound: COc1cc2nccc(Oc3ccc(NC(=O)Nc4cc(C)on4)c(Cl)c3)c2cc1OC [AV-951]; settings: top dose 0.128 µM; top dose inferred
Method: as §1

[7] = compound: CC(=O)Nc1cccc(-n2c(=O)n(C3CC3)c(=O)c3c(Nc4ccc(I)cc4F)n(C)c(=O)c(C)c32)c1 [Trametinib]; settings: top dose 1 µM
Method: as §1

| Cell Line | AUC [1] | IC50 [1] [µM] | AUC [2] | IC50 [2] [µM] | AUC [3] | IC50 [3] [µM] | AUC [4] | IC50 [4] [µM] | AUC [5] | IC50 [5] [µM] | AUC [6] | IC50 [6] [µM] | AUC [7] | IC50 [7] [µM] |
| --- | --- | --- | --- | --- | --- | --- | --- | --- | --- | --- | --- | --- | --- | --- |
| NCI-H128 (small cell lung carcinoma, suspension) | 0.901 | > 5 | – | – | – | – | – | – | – | – | – | – | – | – |
| NCI-H510A (small cell lung carcinoma, semi-adherent) | 0.659 | 0.826 | 0.883 | 18.3 | 0.93 | > 20 | 0.946 | > 5.12 | 0.975 | > 10 | 0.986 | > 0.128 | – | – |
| NCI-H748 (small cell lung carcinoma, suspension) | 0.344 | 0.102 | – | – | 0.772 | 9.9 | 0.956 | > 5.12 | – | – | 0.925 | > 0.128 | – | – |
| NCI-H1963 (small cell lung carcinoma, suspension) | 0.611 | 0.604 | 0.96 | > 20 | 0.991 | > 20 | 0.963 | > 5.12 | 0.991 | > 10 | – | – | – | – |
| NCI-H2171 (small cell lung carcinoma, suspension) | 0.654 | 0.781 | 0.951 | > 20 | 0.971 | > 20 | 0.992 | > 5.12 | – | – | 0.991 | > 0.128 | – | – |
| NCI-H2196 (small cell lung carcinoma, adherent) | 0.851 | 4.15 | 0.833 | 13.9 | 0.982 | > 20 | 0.93 | > 5.12 | – | – | 0.976 | > 0.128 | – | – |
| NEC8 (testis, adherent) | 0.373 | 0.148 | 0.835 | 10.5 | 0.512 | 1.34 | 0.907 | > 5.12 | 0.988 | > 10 | 0.99 | > 0.128 | – | – |
| NH-12 (neuroblastoma, adherent) | 0.981 | > 5 | 0.82 | 13.3 | 0.781 | 9.38 | 0.845 | 4.37 | 0.962 | > 10 | 0.984 | > 0.128 | – | – |
| NK-92MI (lymphoid neoplasm, suspension) | 0.71 | 1.17 | – | – | – | – | 0.735 | 1.42 | – | – | – | – | – | – |
| NOMO-1 (acute myeloid leukaemia, suspension) | 0.629 | 0.744 | 0.658 | 3.67 | 0.471 | 1.03 | 0.817 | 3.37 | 0.982 | > 10 | 0.98 | > 0.128 | – | – |
| NOS-1 (osteosarcoma, adherent) | 0.405 | 0.161 | 0.753 | 8.11 | 0.657 | 3.78 | 0.641 | 0.862 | 0.716 | 2.98 | 0.758 | 0.0542 | – | – |
| P31-FUJ (acute myeloid leukaemia, suspension) | 0.996 | > 5 | 0.984 | > 20 | 0.987 | > 20 | 0.996 | > 5.12 | 0.979 | > 10 | 0.996 | > 0.128 | – | – |
| RPMI-8226 (myeloma, suspension) | 0.815 | 2.3 | 0.837 | 11 | – | – | 0.99 | > 5.12 | 0.963 | > 10 | 0.989 | > 0.128 | – | – |
| SCC-3 (B-cell lymphoma, suspension) | 0.234 | 0.0702 | 0.935 | 17.3 | 0.876 | 10.9 | 0.997 | > 5.12 | – | – | 0.995 | > 0.128 | – | – |
| SIG-M5 (acute myeloid leukaemia, suspension) | 0.609 | – | 0.147 | 0.157 | 0.289 | 0.378 | 0.683 | 0.898 | – | – | 0.993 | > 0.128 | – | – |
| SU-DHL-1 (anaplastic large cell lymphoma, suspension) | 0.62 | 0.608 | 0.919 | 14.8 | 0.995 | > 20 | 0.984 | > 5.12 | – | – | 0.993 | > 0.128 | – | – |
| SUP-B15 (lymphoblastic leukaemia, suspension) | 0.631 | 0.708 | 0.325 | 0.417 | 0.641 | 3.01 | 0.236 | 0.0574 | 0.942 | > 10 | 0.857 | 0.0974 | – | – |
| TALL-1 (T-cell lymphoblastic leukaemia, suspension) | 0.915 | > 5 | 0.959 | > 20 | 0.95 | > 20 | 0.989 | > 5.12 | – | – | 0.989 | > 0.128 | – | – |
| TE-441-T (rhabdomyosarcoma, adherent) | 0.96 | > 5 | 0.927 | > 20 | – | – | 0.953 | > 5.12 | – | – | 0.989 | > 0.128 | – | – |
| UACC-812 (breast, adherent) | 0.99 | > 5 | 0.93 | > 20 | 0.931 | > 20 | 0.986 | > 5.12 | – | – | 0.982 | > 0.128 | – | – |
| YKG-1 (glioma, adherent) | – | – | 0.894 | > 20 | 0.975 | > 20 | 0.87 | 4.91 | 0.939 | > 10 | 0.982 | > 0.128 | 0.67 | 0.187 |
| huH-1 (liver, adherent) | – | – | 0.984 | > 20 | 0.984 | > 20 | 0.979 | > 5.12 | 0.922 | > 10 | 0.984 | > 0.128 | 0.86 | > 1 |
| no-11 (glioma, adherent) | – | – | 0.891 | > 20 | 0.937 | > 20 | 0.792 | 3 | 0.964 | > 10 | 0.983 | > 0.128 | 0.882 | > 1 |
